# Experimental data: patent US20230348362A1, “LIPID COMPOUNDS AND LIPID NANOPARTICLE COMPOSITIONS” (Suzhou Abogen Biosciences Co., Ltd., priority 2021, published 2023)
# The name of at least one read-out is uncertain. Some compounds share one wording; it may come from a single statement.
# Test system: human erythropoietin (hEPO) mRNA
# Assay: Animal study: hEPO mRNA LNP tail vein injection, serum hEPO ELISA
# Type: in vivo
# Conditions: female ICR mice, 0.5 mg/kg tail vein injection, blood sampled e.g. 6 hours, relative to MC3 LNP
row,Compound,Expression over MC3
1,CCCCCCCCCCCCC(O)CN(CCCCCC(=O)OCC(CCCCCC)CCCCCCCC)CCN(CCCCCC(=O)OCCCCCCCCCCC)C1CCC1 (centres unmarked) [Compound 2],D (<0.1)
2,CCCCCCCCCCCOC(=O)CCCCCN(CCN(CCO)CCCCCC(=O)OCC(CCCCCC)CCCCCCCC)C1CC1 (centres unmarked) [Compound 3],C (≥0.1 and <1)
3,CCCCCCCCCCCOC(=O)CCCCCN(CCN(CCO)CCCCCC(=O)OCC(CCCCCC)CCCCCCCC)C1CCC1 (centres unmarked) [Compound 4],C (≥0.1 and <1)
4,CCCCCCCCCCCOC(=O)CCCCCN(CCN(CCO)CCCCCC(=O)OCC(CCCCCC)CCCCCCCC)C1CCCC1 (centres unmarked) [Compound 5],C (≥0.1 and <1)
5,CCCCCCCCCCCOC(=O)CCCCCN(CCN(CCO)CCCCCC(=O)OCC(CCCCCC)CCCCCCCC)C1CCCCC1 (centres unmarked) [Compound 6],C (≥0.1 and <1)
6,CCCCCCCCC(CCCCCC)COC(=O)CCCCCN(CCO)CCN(CCCCCC(=O)OCC(CCCCCC)CCCCCCCC)C1CCC1 (centres unmarked) [Compound 7],B (≥1 and <2)
7,CCCCCCCCC(CCCCCC)COC(=O)CCCCCN(CCO)CCN(CCCCCC(=O)OCC(CCCCCC)CCCCCCCC)C1CCCC1 (centres unmarked) [Compound 8],C (≥0.1 and <1)
8,CCCCCCCCC(CCCCCC)COC(=O)CCCCCN(CCO)CCN(CCCCCC(=O)OCC(CCCCCC)CCCCCCCC)C1CC1 (centres unmarked) [Compound 9],C (≥0.1 and <1)
9,CCCCCCCCC(CCCCCCCC)COC(=O)CCCCCN(CCO)CCN(CCCCCC(=O)OCC(CCCCCCCC)CCCCCCCC)C1CCC1 [Compound 10],A (≥2)
10,CCCCCCCCC(CCCCCCCC)CNC(=O)CCCCCN(CCO)CCN(CCCCCC(=O)NCC(CCCCCCCC)CCCCCCCC)C1CCC1 [Compound 11],A (≥2)
11,CCCCCCCCC(CCCCCCCC)CNC(=O)CCCCCN(CCO)CCN(CCCCCC(=O)NCC(CCCCCCCC)CCCCCCCC)C1CCCC1 [Compound 12],A (≥2)
12,CCCCCCCCC(CCCCCCCC)CNC(=O)CCCCCN(CCO)CCN(CCCCCC(=O)NCC(CCCCCCCC)CCCCCCCC)C1CCCCC1 [Compound 13],A (≥2)
13,CCCCCCCCC(CCCCCCCC)CNC(=O)CCCCCN(CCO)CCN(CCCCCC(=O)NCC(CCCCCCCC)CCCCCCCC)C1CCCCCC1 [Compound 14],A (≥2)
14,CCCCCCCCC(CCCCCCCC)CNC(=O)CCCCCN(CCO)CCN(CCCCCC(=O)OCC(CCCCCCCC)CCCCCCCC)C1CCC1 [Compound 15],A (≥2)
15,CCCCCCCCC(CCCCCCCC)CNC(=O)CCCCCN(CCO)CCN(CCCCCC(=O)OCC(CCCCCCCC)CCCCCCCC)C1CCCC1 [Compound 16],A (≥2)
16,CCCCCCCCC(CCCCCCCC)CNC(=O)CCCCCN(CCO)CCN(CCCCCC(=O)OCC(CCCCCCCC)CCCCCCCC)C1CCCCCC1 [Compound 17],A (≥2)
17,CCCCC/C=C\CCCC(CCC/C=C\CCCCC)COC(=O)CCCCCN(CCO)CCN(CCCCCC(=O)OCC(CCC/C=C\CCCCC)CCC/C=C\CCCCC)C1CCCCC1 [Compound 18],C (≥0.1 and <1)
18,CCCCC/C=C\CCCOC(=O)CCCCCN(CCN(CCO)CCCCCC(=O)OCC(CCCCCCCC)CCCCCCCC)C1CCCCC1 [Compound 19],A (≥2)
19,CCCCCCCCCCCCCCOCC(CN(CCN(CCO)CCCCCC(=O)OCC(CCCCCCCC)CCCCCCCC)C1CCC1)OCCCCCCCC (centres unmarked) [Compound 20],C (≥0.1 and <1)
20,CCCCCCCCCCCOC(=O)CCCCCN(CCN(CCO)CCCCCC(=O)OCC(CCCCCCCC)CCCCCCCC)C1CCCCC1 [Compound 21],A (≥2)
21,CCCCCCCCCCCOC(=O)CCCCCN(CCN(CCO)CCCCCC(=O)OCC(CCCCCCC)CCCCCCC)C1CCCCC1 [Compound 22],A (≥2)

row,Compound,Expression over MC3
1,CCCCCCCCC(CCCCCCCC)CNC(=O)CCCCCN(CCO)CCN(CCCCCC(=O)OCC(CCCCCCCC)CCCCCCCC)C1CCCCC1 [Compound 23],A (≥2)
2,CCCCCCCCC(CCCCCC)COC(=O)CCCCCN(CCO)CCN(CCCCCC(=O)OCC(CCCCCC)CCCCCCCC)C1CCCCCC1 (centres unmarked) [Compound 24],A (≥2)
3,CCCCCCCCCCCCCCCCC(CN(CCO)CCN(CC(CCCCCCCCCCCCCCCC)OCCCCCCCC)C1CCC1)OCCCCCCCC (centres unmarked) [Compound 25],D (<0.1)
4,CCCCCCCCC(CCCCCCCC)COC(=O)CCCCCN(C)CCN(CCO)CCCCCC(=O)OCC(CCCCCCCC)CCCCCCCC [Compound 26],C (≥0.1 and <1)
5,CCCCCCCCC(CCCCCCCC)COC(=O)CCCCCN(CC)CCN(CCO)CCCCCC(=O)OCC(CCCCCCCC)CCCCCCCC [Compound 27],C (≥0.1 and <1)
6,CCCCCCCCC(CCCCCCCC)COC(=O)CCCCCN(CCO)CCN(CCCCCC(=O)OCC(CCCCCCCC)CCCCCCCC)C1CCOCC1 [Compound 28],A (≥2)
7,CCCCCCCCC(CCCCCCCC)COC(=O)CCCCCN(CCO)CCN(CCCCCC(=O)OCC(CCCCCCCC)CCCCCCCC)C1CCC(C(F)(F)F)CC1 (centres unmarked) [Compound 29],C (≥0.1 and <1)
8,CCCCCCCCC(CCCCCCCC)COC(=O)CCCCCN(CCO)CCN(CCCCCC(=O)OCC(CCCCCCCC)CCCCCCCC)C1CCSCC1 [Compound 30],B (≥1 and <2)
9,CCCCCCCCC(CCCCCCCC)COC(=O)CCCCCN(CCO)CCN(CCCCCC(=O)OCC(CCCCCCCC)CCCCCCCC)C1CCC(C)(C)CC1 [Compound 31],C (≥0.1 and <1)
10,CCCCCCCCC(CCCCCCCC)COC(=O)CCCCCN(CCC)CCN(CCO)CCCCCC(=O)OCC(CCCCCCCC)CCCCCCCC [Compound 32],A (≥2)
11,CCCCCCCCC(CCCCCCCC)COC(=O)CCCCCN(CCO)CCN(CCCCCC(=O)OCC(CCCCCCCC)CCCCCCCC)C1CCOC1 (centres unmarked) [Compound 33],C (≥0.1 and <1)
12,CCCCCCCCC(CCCCCCCC)COC(=O)CCCCCN(CCO)CCN(CCCCCC(=O)OCC(CCCCCCCC)CCCCCCCC)C1CCCCC1C (centres unmarked) [Compound 34],D (<0.1)
13,CCCCCCCCC(CCCCCCCC)COC(=O)CCCCCN(CCO)CCN(CCCCCC(=O)OCC(CCCCCCCC)CCCCCCCC)CC1CCCC1 [Compound 35],C (≥0.1 and <1)
14,CCCCCCCCC(CCCCCCCC)COC(=O)CCCCCN(CCO)CCN(CCCCCC(=O)OCC(CCCCCCCC)CCCCCCCC)Cc1ccccc1 [Compound 36],C (≥0.1 and <1)
15,CCCCCCCCC(CCCCCCCC)COC(=O)CCCCCN(CCO)CCN(CCCCCC(=O)OCC(CCCCCCCC)CCCCCCCC)Cc1ccncc1 [Compound 37],B (≥1 and <2)
16,CCCCCCCCC(CCCCCCCC)COC(=O)CCCCCN(CCO)CCN(CCCCCC(=O)OCC(CCCCCCCC)CCCCCCCC)Cc1ccc([N+](=O)[O-])cc1 [Compound 38],D (<0.1)
17,CCCCCCCCC(CCCCCCCC)COC(=O)CCCCCN(CCO)CCN(CCCCCC(=O)OCC(CCCCCCCC)CCCCCCCC)Cc1ccc(C)cc1 [Compound 39],C (≥0.1 and <1)
18,CCCCCCCCC(CCCCCCCC)COC(=O)CCCCCN(CCO)CCN(CCCCCC(=O)OCC(CCCCCCCC)CCCCCCCC)C1CCC(C)CC1 (centres unmarked) [Compound 40],C (≥0.1 and <1)
19,C/C=C/CN(CCCCCC(=O)OCC(CCCCCCCC)CCCCCCCC)CCN(CCO)CCCCCC(=O)OCC(CCCCCCCC)CCCCCCCC [Compound 41],B (≥1 and <2)
20,CCCCCCCCC(CCCCCCCC)COC(=O)CCCCCN(CC=C(C)C)CCN(CCO)CCCCCC(=O)OCC(CCCCCCCC)CCCCCCCC [Compound 42],A (≥2)
